# Among all 2,100 compounds or so, about 670 (32%) were called active. Inconclusive results, whose numbers are uncertain, are shown with a selection of clear calls. The call rests on the fitted dose curve; in most records, active means well fitted inhibition curve with a large enough effect; inconclusive means small, poorly fitted or top-dose-only effect; inactive means no such curve, though single readings can be large or run the other way. Where the call is inconclusive, the potency comes from a doubtful curve fit.
# Assay: CMV-Luciferase Counterscreen for Inhibitors of ATXN expression; further: nearly all actives have a fitted effect of over 55% in size
# Details: HEK-293 CMV-luciferase reporter, luminescence, 24 h; series mostly up to 57.5 µM; activity change, negative = inhibition: at the top concentration
# On the % scale 0 is the no-effect control and ±100 the full control effect; potency means the concentration at half of the fitted maximal effect; tags describe the fitted curve by direction and shape.
SMILES,Potency,"activity change, negative = inhibition"
CC1CCCCN1S(=O)(=O)c1ccc(C(=O)Nc2nnc(-c3ccccc3Cl)o2)cc1 (stereo unspecified),"inconclusive: 1.12 µM [inhibitor, partial curve, poor fit]",–
COc1cccc(/C=N/NC(=O)c2ccc(-c3ccccc3)cc2)c1O,active: 2 µM,–
CC(C)(C)NCC(=Cc1ccccc1)C(=O)c1ccccc1,"inconclusive: 3.55 µM [inhibitor, partial curve, poor fit]",–
Cc1ccc(NS(=O)(=O)c2ccc(C(=O)NNC(=O)c3ccccc3O)cc2)cc1,"inconclusive: 7.94 µM [inhibitor, full curve]",–
COc1ccc(/C=C/C(=O)c2ccc3c4c(cccc24)CC3)cc1OC,"inconclusive: 14.1 µM [inhibitor, partial curve]",–
COc1ccccc1NC(=O)Nc1nc(CC(=O)N2CCN(c3ccccc3)CC2)cs1,"inconclusive: 35.5 µM [inhibitor, single point]",–
Cc1ccc(Sc2nnc(Cc3ccccc3)c3ccccc23)cc1,–,inactive: -3.53%
CCCCC/C=C/C1=CC(=O)C[C@H](c2ccc(OC)c(OC)c2)C1,"inconclusive: 25.1 µM [inhibitor, single point]",–
COc1cc(/C=C/C(=O)Nc2ccc(OC)c(S(=O)(=O)N3CCOCC3)c2)ccc1OCC#N,"inconclusive: 3.16 µM [inhibitor, single point]",–
CCCOc1ccc(C(=O)C(CN2CCOCC2)c2ccccc2)cc1 (stereo unspecified),"inconclusive: 31.6 µM [inhibitor, partial curve, poor fit]",–
Cc1cc(C)c2nc(NNC(=O)c3cc(-c4cccs4)nc4ccccc34)sc2c1,active: 2.82 µM,–
O=C(N/N=C/c1ccccc1O)c1ccncc1,"inconclusive: 11.2 µM [inhibitor, partial curve]",–
COc1cc(C#Cc2c(-c3cncn3C)n(C)c3ccc(-c4ccc(OC)nc4)cc23)cc(OC)c1,"inconclusive: 25.1 µM [inhibitor, partial curve, poor fit]",–
CCn1c2ccccc2c2cc(NC(=O)COC(=O)C3CCC(=O)N3)ccc21 (stereo unspecified),–,inactive: 18.1%
Cn1nnnc1Sc1ncnc2scc(Br)c12,"inconclusive: 28.2 µM [inhibitor, single point]",–
O=C(NCc1ccco1)c1ccc(-c2cccc(Cl)c2)o1,–,inactive: 34.1%
c1ccc2c(c1)c1c(c3ccccc32)CN2CCCC2C1 (stereo unspecified),–,inactive: -16.6%
Cc1nc2ccccc2n1-c1nc(-c2ccco2)cc(C(F)(F)F)n1,–,inactive: -23.8%
CCOC(=O)c1c(SCCN2CCCC2)n(-c2ccccc2)c(=S)n(-c2ccccc2)c1=O,"inconclusive: 6.31 µM [inhibitor, single point]",–
COC(=O)c1c(C)oc2ccc(N(C(=O)c3ccncc3)S(=O)(=O)c3ccc(C)cc3C)cc12,"inconclusive: 1.78 µM [inhibitor, partial curve, poor fit]",–
COc1cccc(/C=N/NC(=O)CC(C)O)c1OC/C=C/c1ccccc1 (stereo unspecified),"inconclusive: 6.31 µM [inhibitor, single point]",–
CCCCCc1ccc(OCCC[n+]2ccccc2)c(CCCCC)c1,"inconclusive: 10 µM [inhibitor, partial curve, poor fit]",–

SMILES,Potency,"activity change, negative = inhibition"
Cc1c(OCC(=O)NC2CC(C)(C)NC(C)(C)C2)ccc2c1oc(=O)c1ccccc12,"inconclusive: 3.98 µM [inhibitor, single point]",–
CC(C)C1C(=O)N(Cc2cn(CCC3OCCO3)nn2)CCS(=O)(=O)N1Cc1ccc(-c2ccc(Cl)cc2)cc1 (stereo unspecified),"inconclusive: 31.6 µM [inhibitor, single point]",–
COc1ccccc1C(=O)NNC(=O)c1nn(Cc2ccccc2)c(=O)c2ccccc12,"inconclusive: 15.8 µM [inhibitor, partial curve]",–
Cc1ccnc(NC(=S)N2CCN(c3cccc(C(F)(F)F)c3)CC2)c1,–,inactive: 410%
Cc1cccc(OCC(=O)NCC(=O)N/N=C/c2cc(Br)cc(Br)c2O)c1,active: 5.01 µM,–
Cn1nnnc1Sc1ncnc2scc(-c3ccsc3)c12,active: 11.2 µM,–
O=C(c1cnc(N2CCN(c3ccccn3)CC2)c2ccccc12)N1CCN(c2cccc(Cl)c2)CC1,active: 6.31 µM,–
COc1ccc(CC(N)c2csc(NC(=O)CCc3ccccc3)n2)cc1 (stereo unspecified),"inconclusive: 15.8 µM [inhibitor, partial curve]",–
CCOc1cc(CNCCO)cc(Br)c1OCc1ccccc1,"inconclusive: 10 µM [inhibitor, partial curve, poor fit]",–
CC[C@H]1CN2CCc3cc(OC)c(OC)cc3[C@@H]2C[C@@H]1C[C@H]1NCCc2cc(OC)c(OC)cc21,active: 0.0794 µM,–
COc1cc(C(C)=O)ccc1OCC(=O)Nc1ccc(C)c(S(=O)(=O)N2CCCCCC2)c1,"inconclusive: 2.82 µM [inhibitor, partial curve, poor fit]",–
OCCN1CCN(c2nc(-c3ccccc3O)nc3ccccc23)CC1,"inconclusive: 17.8 µM [inhibitor, partial curve]",–
COc1cc2cc(C(=O)NC(C)c3cccc4ccccc34)c(N)nc2cc1OC (stereo unspecified),–,inactive: -29.5% [at 11.4 µM]
OC[C@@H]1[C@@H](c2ccc(Cl)cc2)C(c2cccc(Cl)c2)=NN1c1ccccc1,"inconclusive: 39.8 µM [inhibitor, single point]",–
CC1CCCN(S(=O)(=O)c2ccc(C(=O)Nc3nnc(-c4ccccc4Cl)o3)cc2)C1 (stereo unspecified),active: 1.26 µM,–
CCn1ccnc1CN1CCCC(C(=O)c2ccc3cc(OC)ccc3c2)C1 (stereo unspecified),"inconclusive: 3.55 µM [inhibitor, single point]",–
COC(=O)c1c(NC(=O)c2ccc([N+](=O)[O-])o2)sc2c1CCN(C(C)C)C2,active: 15.8 µM,–
CCCCC(=O)N(C)c1c(CC)nc2c(OCc3ccc(Cl)cc3Cl)cccn12,active: 3.55 µM,–
CC(C)CCNC(=O)COc1cccc2c1OC(C)(C)C2,–,inactive: -14.5%
Cc1ccc(/C=C2/CNC/C(=C/c3ccc(C)cc3)C2=O)cc1,"inconclusive: 39.8 µM [inhibitor, single point]",–
CC(=O)Oc1ccc2ccccc2c1C(NC(=O)Cc1ccccc1)c1ccccc1Cl (stereo unspecified),"inconclusive: 3.16 µM [inhibitor, single point]",–
O=c1[nH]c(=O)n(C2C[C@H](O)[C@@H](CO)O2)cc1C(F)(F)F (stereo partly specified),active: 2.82 µM,–

SMILES,Potency,"activity change, negative = inhibition"
c1ccc(-c2sc3ccccc3c2-c2ccc(OCCN3CCCC3)cc2)cc1,"inconclusive: 22.4 µM [inhibitor, single point]",–
O=C(CNc1ccc(F)cc1)N/N=C/c1c(O)ccc2ccccc12,"inconclusive: 3.55 µM [inhibitor, partial curve, poor fit]",–
CN(C)CCCN(C(=O)c1ccco1)c1nc2cc3c(cc2s1)OCO3,–,inactive: 2.59%
N#CC1=C(N)N2C(=C(C#N)C1c1cccc(Br)c1)Nc1ccccc12 (stereo unspecified),active: 3.55 µM,–
CCC(O)(CC)C(=O)N/N=C/c1cc(Br)cc(Br)c1O,"inconclusive: 8.91 µM [inhibitor, partial curve, poor fit]",–
CN(C)c1ccc2c(c1)OC(N)=C(C#N)C2c1cccc(F)c1 (stereo unspecified),–,inactive: -18.1%
CCCC(=O)NC(c1ccc(OC)cc1)c1c(O)ccc2ccccc12 (stereo unspecified),"inconclusive: 12.6 µM [inhibitor, partial curve, poor fit]",–
COc1ccc(-c2ccc(C(c3c(C)[nH][nH]c3=O)c3c(C)[nH][nH]c3=O)o2)c([N+](=O)[O-])c1,"inconclusive: 25.1 µM [inhibitor, single point]",–
Cc1cc2c(c(/C=C/C(=O)c3ccccc3)c1)OC1(C=C2)Oc2ccccc2C(=O)N1C (stereo unspecified),"inconclusive: 25.1 µM [inhibitor, single point]",–
C=CCc1ccccc1OCC(=O)N/N=C/c1ccc(OC(C)=O)cc1OC(C)=O,"inconclusive: 7.94 µM [inhibitor, full curve, poor fit]",–
CCC(c1nnnn1C1CCCC1)N(Cc1cccs1)Cc1cc2cc(C)ccc2[nH]c1=O (stereo unspecified),"inconclusive: 25.1 µM [inhibitor, single point]",–
COc1ccccc1N1CCN(Cc2cc(Br)c(O)c3ncccc23)CC1,"inconclusive: 2 µM [inhibitor, full curve, poor fit]",–
c1cc2c(cc1-c1cnc3n1CCC3)OCCO2,–,inactive: 59.6%
COCCNc1nc(-c2cc(C)n(CCc3ccc(OC)cc3)c2C)cs1,–,inactive: -10.1%
O=C(CSc1ccc2ccccc2n1)N/N=C/c1ccccc1O,"inconclusive: 12.6 µM [inhibitor, partial curve]",–
COc1ccc(C(=O)Nn2c(SCC(=O)c3ccccc3)nc3ccccc3c2=O)cc1,"inconclusive: 39.8 µM [inhibitor, single point]",–
OCCN1CCN(C2CCC(c3ccc(F)cc3)c3ccc(F)cc32)CC1 (stereo unspecified),"inconclusive: 14.1 µM [inhibitor, partial curve, poor fit]",–
CC(=O)NC(c1ccccc1)c1cc(Cl)c2cccnc2c1O (stereo unspecified),"inconclusive: 2.51 µM [inhibitor, full curve, poor fit]",–
Cc1cccc(OCCn2cc(/C=N/NC(=O)c3ccncc3)c3ccccc32)c1,"inconclusive: 8.91 µM [inhibitor, single point]",–
CCCC(=O)OC/C(O)=C(\C#N)c1nc2ccccc2[nH]1,"inconclusive: 8.91 µM [inhibitor, single point]",–
Cc1c(CC(=O)NCCCC(=O)O)c(=O)oc2cc3c(cc12)CCC(C)(C)O3,active: 11.2 µM,–
O=C1C(Cl)=C(N2CCC(C(=O)O)CC2)C(=O)c2ccccc21,"inconclusive: 20 µM [inhibitor, single point]",–
